Test results from publication doi:10.1101/2022.04.06.487260, “The purified recombinant FAT domain of the Focal Adhesion Kinase does not bind directly to recombinant Talin or MBD2 in vitro” (bioRxiv, 2022).

Target: T1, FAT domain of human FAK (892-1052) (human, UniProt Q05397 892-1052)
T1 construct: focal adhesion kinase (FAK), human, residues 892-1052: FAT domain with N-terminal residues preceding the four-helix bundle (922-1049); Expressed as GST fusion from pGex-6P2 and released from the beads with 3C protease; 15N-labelled (M9 medium with 15N-NH4Cl) for the NMR experiments; also called FAT892-1052; FAK FAT; source: E. coli BL21, purified (Glutathione Sepharose 4B, 3C protease, Superdex …)
T1 sequence (looked up): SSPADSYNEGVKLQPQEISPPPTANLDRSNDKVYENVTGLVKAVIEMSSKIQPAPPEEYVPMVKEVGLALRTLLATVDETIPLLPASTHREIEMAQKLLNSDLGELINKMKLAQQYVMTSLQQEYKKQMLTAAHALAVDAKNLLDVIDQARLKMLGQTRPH
Test: ITC; 100 μM MBD2 fragments titrated onto 5 μM FAT892-1052 in the cell; 15°C; 20 mM HEPES pH 7.5, 150 mM NaCl, 0.5 mM TCEP
Settings: both partners purified

B1: MBD2 fragment 2 (MBD2 […]) (domain or fragment)
chain: not shown
notes: gene codon optimised and synthesised; Fragment 2 was also cloned, expressed and purified from pET28b with a His-tag; The forward primer encodes a 3C site before the fragment; source: E. coli BL21 (DE3), purified (Nickel beads, 3C protease, gel filtration)
Question: Which Kd does the source give for B1 here?
Answer: Its Kd is greater than 20 µM.

B2: MBD2 fragment 3 (MBD2 […]) (domain or fragment)
chain: not shown
notes: gene codon optimised and synthesised; The forward primer encodes a 3C site before the fragment; source: E. coli BL21 (DE3), purified (Nickel beads, 3C protease, gel filtration)
Question: Which Kd does the source give for B2 here?
Answer: The Kd was greater than 20 µM.
